Results as given in PubChem BioAssay AID686978 (National Center for Advancing Translational Sciences (NCATS), 2013).
The campaign covered roughly 420,000 compounds. About 64,000 (15%) were called active. This list was built around the results that the source calls inconclusive (neither active nor inactive); the mix of calls is not that of the screen. Calls follow the shape of the dose curve; as a rule, active = well fitted inhibition curve with a large enough effect; inconclusive = small, poorly fitted or top-dose-only effect; inactive = flat fitted curve, though single readings scatter. No potency is given beside an inconclusive call; the fits are too rough.

test: qHTS for Inhibitors of human tyrosyl-DNA phosphodiesterase 1 (TDP1): qHTS in cells in absence of CPT; details: DT40 Tdp1-/- hTDP1 cells, no CPT, ATP luminescence, 48 h; series mostly up to 46.2 µM; also: nearly all actives have a fitted effect of over 55% in size
Summary of the method: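 A cellular qHTS used chicken DT40 cells lacking endogenous Tdp1 but carrying stably transfected human TDP1. Compounds were applied without camptothecin, and cell growth kinetics were judged by ATP-dependent luminescence after ≥48 hr.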
Potency is read from the fitted curve at half-maximal effect; tags tell the direction and shape of the fitted curve.

Compound | Potency
COc1ccc(OC)c(CN2C(=O)c3ccccc3C2c2nnnn2C(C)C)c1 (centres undefined) | inconclusive [inhibitor, single point]
CN(C)C(=O)CCc1ccc2c3c([nH]c2c1)[C@]1(C)[C@@H](C(=O)N2CCCCC2)C[C@H](CC(=O)NCCC2=CCCCC2)C(=O)N1CC3 | active: 16.4 µM
Cc1cc(C)cc(SCc2noc(C(=O)NC(C)C)c2C(=O)NC(C)C)c1 | inactive
CCN(CC)CCN(C(=O)c1ccc(C(=O)c2ccccc2)cc1)c1nc2cc3c(cc2s1)OCO3 | inconclusive [inhibitor, single point]
CCCCCC(=O)N1c2ccccc2C(C)(c2ccccc2)CC1(C)C (centres undefined) | inconclusive [inhibitor, single point]
CCc1nnc(NC(=O)c2ccc(S(=O)(=O)N(CC)Cc3ccccc3)cc2)o1 | active: 7.31 µM
CN(C)c1ccc(C(=O)/C=C/c2ccc(Br)cc2)cc1 | inconclusive [inhibitor, single point]
C=C(C)C(=O)Nc1ccc2nn(-c3ccccc3O)nc2c1 | inconclusive [inhibitor, partial curve]
COc1ccc(-c2cc(=O)oc3c(C)c(OC(C)C(C)=O)ccc23)cc1 (centres undefined) | inconclusive [inhibitor, single point]
CCn1c(CNc2ccc(Cl)cc2)nnc1SCc1ccccc1 | inconclusive [inhibitor, partial curve]
CC(Cc1ccccc1)NC(=O)/C=C/c1ccc([N+](=O)[O-])cc1 (centres undefined) | active: 18.4 µM
COc1ccc(CNc2ncncc2-c2cccnc2)c(OC)c1 | inactive
CCN(CC)S(=O)(=O)c1cccc(-c2nnc(SC(C)C(=O)NCCC3=CCCCC3)o2)c1 (centres undefined) | active: 25.9 µM
CCC(Sc1nc2c(sc3ccccc32)c(=O)n1CCc1ccccc1)C(=O)N(CC)CC (centres undefined) | inconclusive [inhibitor, partial curve, poor fit]
O=C1CN(/N=C/c2ccc(-c3ccc([N+](=O)[O-])cc3)o2)C(=O)N1 | inconclusive [inhibitor, partial curve]
Cc1ccc2c(c1)N(C(=O)CCC(=O)NCCCN1CCN(C)CC1)CCO2 | inactive
O=C(CC(NC(=O)c1ccccc1)c1ccccc1)Nc1cccc2ccccc12 (centres undefined) | inactive
O=C(c1ccc2c(c1)N(Cc1ccccc1)C(=O)c1ccccc1S2(=O)=O)N1CCCC1 | active: 23.1 µM
O=C(O)c1nn(CC(=O)N2CCN(c3ccccc3)CC2)c(=O)c2ccccc12 | inactive
Fc1ccc(-[n+]2nc(Nc3ccccc3)sc2-c2c(Cl)cccc2Cl)cc1 | inconclusive [inhibitor, single point]
C=CCNC(=S)N/N=C(\C)c1cc(OC)c(OC)c(OC)c1 | active: 2.91 µM
COc1cc(C(=O)NCCCN(C)C)ccc1OCC(=O)Nc1cccc(C(F)(F)F)c1 | inconclusive [inhibitor, single point]

Compound | Potency
COc1ccc(-c2cc(-c3ccc(N)cc3)nc(N)c2C#N)cc1OC | inconclusive [inhibitor, single point]
CCn1nc(NS(=O)(=O)c2ccccc2[N+](=O)[O-])c2cc3ccc(C)cc3nc21 | inactive
Clc1ccc(Cn2ncc3c(N4CCCC4)ncnc32)cc1 | inconclusive [inhibitor, full curve, poor fit]
CCOC(=O)C1CCN(C(=O)/C=C/c2ccc(S(=O)(=O)N3CCOCC3)cc2)CC1 | inconclusive [inhibitor, single point]
Fc1cccc(CCN2CCNC[C@@H]2Cc2ccccc2)c1 | inconclusive [inhibitor, partial curve]
COc1cccc(CCNC(=O)Cn2c(-c3cccs3)cc3ccccc32)c1 | inconclusive [inhibitor, partial curve, poor fit]
COc1ccc(NC(=O)c2ccc(F)cc2)cc1S(=O)(=O)Nc1cc(C)ccc1Br | inconclusive [inhibitor, single point]
CC1(c2cccc(Br)c2)NC(=O)N(CC(=O)Nc2ccc(N3CCCCC3)cc2)C1=O (centres undefined) | active: 13 µM
CCN(CC)c1ccc(/C=C2\CCC(/C=C(\C#N)C(=O)Nc3ccccc3F)=C2N2CCOCC2)cc1 | active: 2.31 µM
CC(=O)c1ccccc1OC(=O)CCN1C(=O)c2ccccc2C1=O | inactive
CCOC(=O)c1c(C)nc(C)c(C(=O)OCC)c1-c1cccc(N)c1 | inconclusive [inhibitor, full curve]
Cc1ccc(C(=O)CC(=O)COc2ccc(Cl)cc2)cc1 | active: 14.6 µM
Cc1cc(C)c(-c2cc(C(F)(F)F)no2)c(=O)[nH]1 | inactive
COCCNC(=O)/C(C#N)=C/c1ccc(OC(=O)c2cccs2)c(OC)c1 | inconclusive [inhibitor, partial curve]
COc1ccc(C(=O)C[n+]2ccc3c(c2)nc(-c2ccccc2)n3C)cc1 | active: 8.2 µM
CCOc1cc(NC(=O)c2ccccn2)c(OCC)cc1NC(=O)c1ccc(C)cc1 | active: 3.26 µM
CN(C)CCCN(C(=O)c1ccco1)c1nc2c(F)cccc2s1 | inconclusive [inhibitor, partial curve]
O=c1cc(CO)oc(C(Nc2ccccn2)c2ccc(C(F)(F)F)cc2)c1O (centres undefined) | inconclusive [inhibitor, single point]
CN(c1ccc(C(=O)N/N=C/c2cccc([N+](=O)[O-])c2)cc1)S(=O)(=O)c1ccccc1 | inconclusive [inhibitor, single point]
Cn1c2ccc(F)cc2c2nnc(NN)nc21 | inconclusive [inhibitor, single point]
Cc1c(NC(=O)OCCSc2nc(N(C)C)nc(N(C)C)n2)sc(=S)n1C | inactive
Cc1nn(S(=O)(=O)c2cccs2)c(C)c1Sc1ccc([N+](=O)[O-])cc1 | inconclusive [inhibitor, single point]
